Structures can show the parent of a compound that is named as a salt. ± gives the standard deviation of the averaged measurements. The full ranking holds about 2,000 compounds; the median of “relative cell viability vs DMSO, compound alone” is about 1.1, and the lowest 2% start at about 0.29. Some of the results follow.

This assay has as its system TE10. The experiment in a line: relative cell viability vs DMSO, compound alone (fraction); TE10 is an esophageal squamous carcinoma line; higher = less cytotoxic. Particulars: 2 µM; 48 h. The procedure: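 TE10 ESCC cells (1,000/well, 384-well plates) were treated with Selleck bioactive library compounds at 2 uM alone for 48 h. Viability was read by CellTiter-Glo and expressed relative to DMSO wells. Two technical replicates (A, B).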
As to `Cc1cc(C(C)Nc2ccccc2)c2nc(N3CCOCC3)cc(=O)n2c1` (stereo unspecified), the relative cell viability came out at 1.13 ± 0.1. The value for `NC1(Cc2ccc(Cl)cc2)CCN(c2ncnc3[nH]ccc23)CC1` was 0.818 ± 0.13; that for `CCOC(=O)C1=C(N)Oc2ccc(Br)cc2C1C(C#N)C(=O)OCC` (stereo unspecified) was 1.12 ± 0.11; that for `O=[N+]([O-])c1ccc(Nc2nc(N3CCOCC3)nc(N3CCOCC3)n2)cc1` was 1.12 ± 0.012. Then `CCCCOc1cc(C(=O)OCCN(CC)CC)ccc1N` [Oxybuprocaine HCl], with 1.13 ± 0.049; and `O=C1O[C@H]([C@@H](O)CO)C([O-])=C1O.[Na+]` [Sodium ascorbate], with 1.12 ± 0.076.

Turning to `N#C/C(=C1/SC[C@@H](c2ccc(Cl)cc2Cl)S1)n1ccnc1` [Luliconazole], the relative cell viability was determined as 1.1796 ± 0.00042. The value for `NC(=O)C1CCCc2c1[nH]c1ccc(Cl)cc21` (stereo unspecified) [EX 527 (Selisistat)] was 0.983 ± 0.2; that for `COC(=O)[C@H](Cc1ccccc1)NC(=O)[C@@H](N)CC(=O)O` [Aspartame] was 1.06 ± 0.036. In turn, `CCS(=O)(=O)c1cccc(-c2cc(C(=O)NC3CCN(C)CC3)c(C)c3[nH]c4ncc(C)cc4c23)c1` gave a relative cell viability of 0.719 ± 0.011. The value for `Clc1ccc(C2(c3ccc(-c4cn[nH]c4)cc3)CCNCC2)cc1` was 0.907 ± 0.011. The value for `CNC(=O)[C@@H](NC(=O)[C@H](CC(C)C)[C@H](O)C(=O)NO)C(C)(C)C` [Marimastat(BB-2516)] was 1.05 ± 0.073. `C[C@]12CC[C@@H]3c4ccc(O)cc4C[C@@H](CCCCCCCCC[S+]([O-])CCCC(F)(F)C(F)(F)F)[C@H]3[C@@H]1CC[C@@H]2O` (stereo partly specified) [Fulvestrant]: the relative cell viability turned out to be 1.21 ± 0.051.

On to `C=C[C@](C)(O)CC[C@@H]1[C@@]2(C)CCCC(C)(C)[C@@H]2CC[C@@]1(C)O` [Sclareol], for which the relative cell viability turned out to be 1.17 ± 0.031.

Consider `O=C(O)c1cccc(-c2noc(-c3ccccc3F)n2)c1` [Ataluren (PTC124)], for which the relative cell viability is 0.55 ± 0.02.

`Nc1ccc(S(=O)(=O)Nc2nccs2)cc1` [Sulfathiazole] displayed a relative cell viability of 1.15 ± 0.033. The molecule `Cc1ccc(-c2cc(C(F)(F)F)nn2-c2ccc(S(N)(=O)=O)cc2)cc1` [Celecoxib] yielded a relative cell viability of 1.17 ± 0.14. Then `CC(C)[N+]1(C)[C@@H]2CC[C@H]1C[C@@H](OC(=O)C(CO)c1ccccc1)C2` (stereo partly specified) [Ipratropium Bromide], with 1.05 ± 0.11; and `O=C1C(Cl)=C(N2CCOCC2)C(=O)N1c1ccc(Cl)c(Cl)c1`, with 1.13 ± 0.034. Then `OCCn1cc(-c2ccc3c(c2)CC/C3=N\O)c(-c2ccncc2)n1`, with 1.156 ± 0.01; and `CN1CCc2nc(C(=O)N[C@@H]3C[C@@H](C(=O)N(C)C)CC[C@@H]3NC(=O)C(=O)Nc3ccc(Cl)cn3)sc2C1` [Edoxaban], with 1.09 ± 0.014. Turning to `CCn1c(N)c(C(=O)NC)c(=O)c2ccc(C#CC(C)(O)COC)nc21` (stereo unspecified), the relative cell viability was 0.979 ± 0.17. Then `CC[C@H]1OC(=O)[C@H](C)[C@@H](O[C@H]2C[C@@](C)(OC)[C@@H](O)[C@H](C)O2)[C@H](C)[C@@H](O[C@@H]2O[C@H](C)C[C@H](N(C)C)[C@H]2O)[C@](C)(O)C[C@@H](C)CN(C)[C@H](C)[C@@H](O)[C@]1(C)O` [Azithromycin], with 0.888 ± 0.054. Then `CC[C@H]1OC(=O)[C@H](C)[C@@H](O[C@H]2C[C@@](C)(OC)[C@@H](O)[C@H](C)O2)[C@H](C)[C@@H](O[C@@H]2O[C@H](C)C[C@H](N(C)C)[C@H]2O)[C@](C)(O)C[C@@H](C)CN(C)[C@H](C)[C@@H](O)[C@]1(C)O` [Azithromycin Dihydrate], with 1.09 ± 0.049; and `CN[C@H]1CC[C@@H](c2ccc(Cl)c(Cl)c2)c2ccccc21` [Sertraline HCl], with 0.99 ± 0.021; and `NC[C@H](O)c1ccc(O)c(O)c1` [Noradrenaline bitartrate monohydrate], with 1.06 ± 0.025.

`CCN(CC)CCNC(=O)c1ccc(N)cc1` [Procainamide HCl] displayed a relative cell viability of 1.06 ± 0.059.

In the case of `CC(C=CC1(O)C(C)=CC(=O)CC1(C)C)=CC(=O)O` (stereo unspecified) [Abscisic Acid (Dormin)], the relative cell viability came out at 1.153 ± 0.0068.

As for `C=C[C@]1(C)C[C@@H](OC(=O)CSC(C)(C)CNC(=O)[C@H](N)C(C)C)[C@]2(C)[C@H](C)CC[C@]3(CCC(=O)[C@H]32)[C@@H](C)[C@@H]1O` [Valnemulin HCl], the relative cell viability was determined as 1.17 ± 0.072. Turning to `Cc1c(-c2ccc(O)cc2)n(Cc2ccc(OCCN3CCCCCC3)cc2)c2ccc(O)cc12` [Bazedoxifene HCl], the relative cell viability came to 0.935 ± 0.041. The value for `CCc1cc2c(cc1CC)CC(NC[C@H](O)c1ccc(O)c3[nH]c(=O)ccc13)C2` [Indacaterol Maleate] was 1.15 ± 0.066; that for `CNC(=O)c1ccc(N2C(=S)N(c3ccc(C#N)c(C(F)(F)F)c3)C(=O)C2(C)C)cc1F` [Enzalutamide (MDV3100)] was 0.897 ± 0.093; that for `CCCc1ccc(OCC(=O)N(Cc2nc(-c3cccnc3)no2)C(C)C)cc1` was 1.13 ± 0.076.

Turning to `COc1cc(OC)c(NC(=O)Nc2cc(C)on2)cc1Cl`, the relative cell viability turned out to be 1.13 ± 0.043.

`COc1cc2nc(N3CCN(C(=O)C4COc5ccccc5O4)CC3)nc(N)c2cc1OC` (stereo unspecified) [Doxazosin Mesylate] yielded a relative cell viability of 1.3 ± 0.035. Then `N#C/C(=C(/N)Sc1ccc(N)cc1)c1ccccc1C(F)(F)F`, with 1.13 ± 0.051; and `NC[C@@](O)(c1ccc(Cl)cc1)c1ccc(-c2cn[nH]c2)cc1`, with 0.94 ± 0.0015; and `O=c1c(O)c(-c2ccc(O)cc2)oc2cc(O)cc(O)c12` [Kaempferol], with 1.14 ± 0.054. `CCN(CC)C(=O)C1(c2ccccc2)CC1CN` (stereo unspecified) [Milnacipran HCl] displayed a relative cell viability of 1.01 ± 0.048. The value for `Cc1cc(C(C)(C)C)cc(C)c1CC1=NCCN1` [Xylometazoline HCl] was 1.11 ± 0.037; that for `COc1cc(NC(=O)c2ccccn2)ccc1Cl` was 1.01 ± 0.05; that for `CCN(CC)CCOCCOC(=O)C1(c2ccccc2)CCCC1` [Pentoxyverine Citrate] was 1.13 ± 0.073. For `CC#CCn1c(N2CCC[C@@H](N)C2)nc2c1c(=O)n(Cc1nc(C)c3ccccc3n1)c(=O)n2C` [Linagliptin], the relative cell viability was 1.09 ± 0.041. The value for `O=C(/C=C/c1cccc(S(=O)(=O)Nc2ccccc2)c1)NO` [Belinostat (PXD101)] was 0.216 ± 0.0062. `CNC(=O)c1c(F)cccc1Nc1nc(Nc2cc3c(cc2OC)CCN3C(=O)CN(C)C)nc2[nH]ccc12` registered a relative cell viability of 1.06 ± 0.052. Then `CC(C)(C)c1cc(NC(=O)Nc2ccc(-c3cn4c(n3)sc3cc(OCCN5CCOCC5)ccc34)cc2)no1` [Quizartinib (AC220)], with 0.594 ± 0.04; and `CC1(C)Cc2c(-c3ccccc3)c(-c3ccc(Cl)cc3)c(CC(=O)O)n2C1` [Licofelone], with 1.052 ± 0.0016; and `CN1CCN2c3ncccc3Cc3ccccc3C2C1` (stereo unspecified) [Mirtazapine], with 0.865 ± 0.018. The value for `CC[C@H](NC(=O)[C@H](C)NC)C(=O)N1C[C@@H](O)C[C@H]1Cc1c(-c2[nH]c3cc(F)ccc3c2C[C@@H]2C[C@H](O)CN2C(=O)[C@H](CC)NC(=O)[C@H](C)NC)[nH]c2cc(F)ccc12` [Birinapant] was 0.801 ± 0.017; that for `CC(C)N(CC[C@H](c1ccccc1)c1cc(CO)ccc1O)C(C)C` was 1.08 ± 0.014; that for `CC(C)[C@H](N)C(=O)OCCOCn1cnc2c(=O)nc(N)[nH]c21` [Valaciclovir HCl] was 0.904 ± 0.03. The value for `Cc1cc(C)nc(NS(=O)(=O)c2ccc(N)cc2)n1` [Sulfamethazine] was 1.1 ± 0.044. On to `CC1(C)O[C@@H]2C[C@H]3[C@@H]4C[C@H](F)C5=CC(=O)C=C[C@]5(C)[C@@]4(F)[C@@H](O)C[C@]3(C)[C@]2(C(=O)CO)O1` [Fluocinolone Acetonide], for which the relative cell viability was 0.997 ± 0.025. Then `CC(C)(Oc1ccc(Cl)cc1)C(=O)OCCOC(=O)c1cccnc1` [Etofibrate], with 1.06 ± 0.026; and `CCn1c(=O)c2c(nc(/C=C/c3ccc(OC)c(OC)c3)n2C)n(CC)c1=O` [Istradefylline], with 1.17 ± 0.08; and `CC(C(O)c1ccc(O)cc1)N1CCC(Cc2ccccc2)CC1` (stereo unspecified) [Ifenprodil Tartrate], with 0.999 ± 0.018. The value for `C[C@@H]1C/C=C/C=C/C=C/C=C/[C@H](O[C@@H]2O[C@H](C)[C@@H](O)[C@H](N)[C@@H]2O)C[C@@H]2O[C@](O)(C[C@@H](O)C[C@H]3O[C@@H]3/C=C/C(=O)O1)C[C@H](O)[C@H]2C(=O)O` [Natamycin] was 1.24 ± 0.018; that for `Nc1nc(=O)n([C@@H]2CS[C@H](CO)O2)cc1F` [Emtricitabine] was 1.06 ± 0.076; that for `COc1ccc(Cl)cc1C(=O)NCCc1ccc(S(=O)(=O)NC(=O)NC2CCCCC2)cc1` [Glyburide] was 1.05 ± 0.035. The value for `CC[C@@H]1C(=O)N(C)c2cnc(Nc3ccc(C(=O)N[C@H]4CC[C@H](N5CCN(CC6CC6)CC5)CC4)cc3OC)nc2N1C(C)C` [Volasertib (BI 6727)] was 0.771 ± 0.011; that for `CCc1cccc(CC)c1NC(=O)N1Cc2[nH]nc(NC(=O)c3ccc(N4CCN(C)CC4)cc3)c2C1` was 1.06 ± 0.054; that for `CC#C[C@]1(O)CC[C@H]2[C@@H]3CCC4=CC(=O)CCC4=C3[C@@H](c3ccc(N(C)C)cc3)C[C@@]21C` [Mifepristone] was 0.976 ± 0.051. `COC(=O)C1=CO[C@@H](O)[C@@H]2C(CO)=CC[C@H]12` [Genipin] registered a relative cell viability of 1.1 ± 0.047. Then `Cc1nc(C(=O)NCC(=O)O)c(O)c2ccc(Oc3ccccc3)cc12`, with 0.905 ± 0.26; and `CCOC(=O)C1=C(N)Oc2ccc(Cl)cc2C1C(C#N)C(=O)OCC` (stereo unspecified), with 1.12 ± 0.035; and `COc1cccc2c1C(=O)c1c(O)c3c(c(O)c1C2=O)C[C@@](O)(C(=O)CO)C[C@@H]3O[C@H]1C[C@H](N)[C@H](O[C@@H]2CCCCO2)[C@H](C)O1` [Pirarubicin], with 0.5943 ± 0.0018. The value for `CCCCCCNC(=O)n1cc(F)c(=O)[nH]c1=O` [Carmofur] was 0.971 ± 0.23; that for `C[C@H](CCC(=O)O)[C@H]1CC[C@H]2[C@@H]3C[C@H](O)[C@@H]4C[C@H](O)CC[C@]4(C)[C@H]3CC[C@]12C` [Hyodeoxycholic acid (HDCA)] was 1.12 ± 0.015; that for `N=C(N)c1ccc(N=NNc2ccc(C(=N)N)cc2)cc1` [Diminazene Aceturate] was 1.1 ± 0.018. Then `NC(=O)Nc1sc(-c2ccc(F)cc2)cc1C(N)=O`, with 0.98 ± 0.072; and `CC(C)(C)OC(=O)N[C@H]1CCCCC/C=C\[C@@H]2C[C@@]2(C(=O)NS(=O)(=O)C2CC2)NC(=O)[C@@H]2C[C@@H](OC(=O)N3Cc4cccc(F)c4C3)CN2C1=O` [Danoprevir (ITMN-191)], with 1.194 ± 0.0044.

The values are drawn from the supplement of paper PMC10670038.
